Measurements reported in the supplement of paper PMC12217912.
The other results are listed elsewhere or left out. The full chains were built here from the parent and the listed change. Values near 0.05 are background.

B1: TEV protease; numbered along this chain (parent)
chain: MGESLFKGPRDYNPISSSICHLTNESDGHTTSLYGIGFGPFIITNKHLFRRNNGTLVVQSLHGVFKVKDTTTLQQHLVDGRDMIIIRMPKDFPPFPQKLKFREPQREERICLVTTNFQTKSMSSMVSDTSCTFPSGDGIFWKHWIQTKDGQCGSPLVSTRDGFIVGIHSASNFTNTNNYFTSVPKNFMELLTNQEAQQWVSGWRLNADSVLWGGHKVFMVKPEEPFQPVKEATQL

Variants of: B1
Assay: raw area under fraction-flipped curve 0-4 h after induction (AUC4h, not background-subtracted), DNA-recorder readout of cleavage of the substrate (dimensionless); higher = more cleavage of the substrate by the protease variant
Conditions: temperature: 34 °C; time window: 0-4 h after rhamnose induction
Procedure: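 In vivo DNA recorder in E. coli TOP10(DE3) ΔrhaA at 34 °C. Each TEVp single-site mutant (parent TEVp 0) is paired with a single-site variant of the 7-mer TEVs (canonical ENLYFQ|S). The substrate sits between flexible linkers in a Bxb1-sfGFP-TEVs-SsrA fusion, so cleavage stabilises Bxb1 and speeds flipping of a recombination array, read by NGS. The value is the raw area under the fraction-flipped curve over 0-4 h after rhamnose induction (AUC4h), with ≥20 reads per time point. It is not background-subtracted; inactive controls average about 0.047.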
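Further: Bxb1 expression induced with 0.2% (w/v) L-rhamnose at OD600 near 0.5, cultures sampled hourly, flipped fraction per protease–substrate barcode pair counted by paired-end Illumina sequencing.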

Row | Variant | area with substrate ENAYFQS | area with substrate ENCYFQS | area with substrate ENDYFQS | area with substrate ENEYFQS | area with substrate ENFYFQS | area with substrate ENGYFQS | area with substrate ENHYFQS | area with substrate ENIYFQS | area with substrate ENKYFQS | area with substrate ENMYFQS | area with substrate ENNYFQS | area with substrate ENQYFQS | area with substrate ENRYFQS | area with substrate ENSYFQS | area with substrate ENTYFQS | area with substrate ENVYFQS | area with substrate ENYYFQS | area with substrate ENPYFQS | area with substrate ENWYFQS
1 | N53R | 0.0531 | 0.0677 | 0.074 | 0.0609 | 0.0667 | 0.0598 | 0.0579 | 0.104 | 0.0593 | 0.0923 | 0.0577 | 0.0581 | 0.0361 | 0.0789 | 0.0386 | 0.0731 |  |  | 
2 | N53T | 0.0616 | 0.062 | 0.0584 | 0.0634 | 0.0349 | 0.0765 |  | 0.0834 |  | 0.0638 |  | 0.052 | 0.0685 | 0.051 | 0.0703 | 0.0647 | 0.0663 |  | 
3 | G54N | 0.0655 | 0.0653 | 0.0529 | 0.0626 |  |  | 0.0487 | 0.0458 |  | 0.0582 | 0.0566 | 0.052 |  | 0.0636 | 0.0589 | 0.0556 | 0.0659 | 0.063 | 
4 | G54T | 0.0474 | 0.0638 | 0.0505 | 0.0549 | 0.0466 | 0.0521 | 0.0574 | 0.0886 | 0.0522 | 0.0503 | 0.0425 | 0.0577 | 0.0529 | 0.0582 | 0.0639 | 0.06 | 0.0478 | 0.0544 | 0.0652
5 | G54Y | 0.047 | 0.0577 |  | 0.055 | 0.062 |  | 0.101 |  | 0.0602 | 0.0663 | 0.057 | 0.0613 | 0.0689 | 0.063 | 0.0618 | 0.0581 | 0.0719 |  | 
6 | V58K | 0.0416 | 0.0292 |  | 0.0326 |  |  | 0.0431 | 0.048 |  |  |  |  | 0.0309 | 0.0522 | 0.0301 |  |  | 0.0512 | 0.0394
7 | Q59Y | 0.0509 | 0.0676 | 0.0673 | 0.0653 | 0.11 | 0.0673 |  | 0.12 |  | 0.0564 |  | 0.0503 | 0.0601 | 0.0734 | 0.073 |  | 0.0324 | 0.0488 | 
8 | S60Q | 0.0835 | 0.0715 | 0.0625 | 0.0707 |  | 0.067 |  | 0.11 |  |  |  | 0.0611 |  |  | 0.0563 | 0.0736 |  | 0.0581 | 
9 | S60Y | 0.0726 |  | 0.068 | 0.0739 |  |  | 0.0593 |  | 0.0366 |  |  | 0.0683 | 0.0542 | 0.0596 |  | 0.0746 | 0.0618 | 0.064 | 0.0793
10 | L61K | 0.0741 |  | 0.0355 | 0.0761 | 0.0559 | 0.0581 |  | 0.0584 | 0.0345 |  | 0.0661 |  | 0.0475 | 0.0637 |  | 0.111 | 0.0573 | 0.059 | 
11 | H62M | 0.0616 |  | 0.0622 | 0.0609 | 0.0512 | 0.0431 | 0.0927 |  |  |  | 0.0759 |  | 0.067 | 0.0613 |  | 0.073 |  | 0.0557 | 
12 | G63D | 0.0548 | 0.0523 | 0.0538 | 0.0597 |  | 0.0442 | 0.0563 | 0.0754 | 0.075 |  | 0.0564 | 0.0581 | 0.0508 | 0.0478 | 0.0415 | 0.0783 |  |  | 
13 | K66I | 0.0573 | 0.0742 | 0.0534 | 0.0167 |  |  |  |  | 0.162 |  |  |  | 0.0651 |  | 0.063 | 0.079 |  |  | 0.0376
14 | K66V | 0.0549 | 0.0655 | 0.0643 | 0.0557 | 0.0504 |  | 0.0641 |  |  | 0.0788 | 0.0568 |  |  | 0.0547 |  |  |  | 0.0644 | 0.0415
15 | K68E | 0.0565 | 0.0572 | 0.0416 | 0.0525 | 0.0567 |  |  |  |  |  | 0.106 | 0.0603 | 0.071 | 0.059 |  | 0.0829 | 0.0855 | 0.0634 | 
16 | K68L | 0.0822 | 0.0679 | 0.0638 | 0.0594 | 0.0539 | 0.0601 | 0.0516 | 0.107 | 0.0686 | 0.0883 | 0.0681 | 0.0581 | 0.0609 | 0.0617 | 0.0404 | 0.0742 | 0.0567 |  | 0.0476
17 | K68Q | 0.0621 | 0.0615 |  | 0.061 | 0.0676 | 0.045 | 0.0651 | 0.11 |  | 0.0901 |  |  | 0.0612 | 0.0636 |  | 0.0755 |  |  | 
18 | D69R | 0.0547 | 0.0898 | 0.0457 | 0.0481 |  | 0.0477 |  | 0.0285 | 0.0629 |  | 0.0565 | 0.0574 |  | 0.0549 |  | 0.0612 | 0.053 | 0.059 | 0.0312
19 | T70D | 0.0619 | 0.0606 | 0.0585 | 0.0425 |  | 0.0631 | 0.0513 |  | 0.0793 |  | 0.0632 |  | 0.0699 | 0.0469 | 0.0583 | 0.062 |  |  | 0.062
20 | T70W | 0.0615 | 0.0666 | 0.0642 | 0.0652 | 0.0646 | 0.0656 | 0.0598 | 0.0887 | 0.0636 | 0.0369 | 0.037 | 0.0615 | 0.0609 | 0.0632 | 0.0603 | 0.0621 | 0.0603 | 0.0591 | 0.0119
21 | Q74E | 0.053 |  | 0.0592 | 0.0644 | 0.0546 | 0.0595 |  | 0.119 | 0.0625 |  |  | 0.0574 |  |  | 0.0684 | 0.0853 |  |  | 0.0465
22 | Q74F | 0.0476 |  | 0.0584 | 0.0497 |  | 0.0495 |  | 0.109 |  |  |  |  |  |  | 0.0498 |  |  | 0.0597 | 0.0422
23 | Q74W | 0.0383 | 0.0573 | 0.0629 | 0.0587 | 0.0706 | 0.0772 | 0.0531 |  |  |  | 0.0601 | 0.0471 | 0.074 | 0.0428 | 0.0669 | 0.0806 | 0.0568 | 0.0619 | 0.0034
24 | H76A | 0.0527 |  | 0.0513 | 0.0534 |  | 0.0638 | 0.0611 | 0.0801 |  |  | 0.0689 | 0.0603 |  | 0.0397 | 0.0534 | 0.0711 |  | 0.0785 | 
25 | H76S | 0.0618 | 0.0708 | 0.0637 | 0.0641 | 0.0623 | 0.0585 | 0.0546 | 0.0968 |  | 0.119 | 0.0581 | 0.0578 |  | 0.0549 | 0.0553 | 0.0607 | 0.0549 | 0.0702 | 
26 | L77D | 0.0603 | 0.0659 | 0.0601 | 0.0607 | 0.0642 | 0.0606 | 0.0519 | 0.0496 | 0.0652 | 0.0627 | 0.0677 | 0.0617 |  | 0.0578 | 0.0643 | 0.0576 | 0.0439 | 0.0383 | 0.0602
